This is an account of results in paper PMC12136788.

The other results are listed elsewhere or left out.

Sequences and labels used below:
B1: chr6:89631235:89631336:+|3pUTR|ENSG00000135299|msi1|total|mutant (ssRNA)
RNA: GGGAGUUCUACAGUCCGACGAUCUGAAGUUUGAAAGCUCAGAUUAAGCAAGCCAUGCCAAGAAACUGGACGAUGUGUAAGCCCCGACUCUAAAAUUCAAGAUGUGUGAAAUAAUAUAAGUCAAAAGCAAGAAAAACGUAAUCCCAACAGAGGAUUGAGCAUCA
B2: chr5:133955728:133955829:-|3pUTR|ENSG00000113583|msi1|total|mutant (ssRNA)
RNA: GGGAGUUCUACAGUCCGACGAUCUCAAUAUGUAAAUAUGUGAUUUGAACCAUGGUUGACUUACAAGUGUCACUACAGCUUUUCCGAAAACACCGCCCUAAUAUAUGUUAAGCAGGACCCGGGUGAGCCAGUGGGCUUGCGCUUCAACAGAGGAUUGAGCAUCA
B3: chr15:52547342:52547511:-|3pUTR|ENSG00000128989|msi1|FALSE|unique (ssRNA)
RNA: GGGAGUUCUACAGUCCGACGAUCAACAUAUUUAAUAUUAUGCCCUUGGAUCUGUUACUGCAUCACUAGCACUUGUGAUGCAAUAGAACACUUCGCCUGUACUGAAAGGGCCAAGAGUAAAUGCCUUGUUUUGUUUUUUUGUUUCAACAGAGGAUUGAGCAUCA
B4: chr16:30351896:30351997:-|3pUTR|ENSG00000169217|unk|total|mutant (ssRNA)
RNA: GGGAGUUCUACAGUCCGACGAUCCUGGCACCCUCCACCUCCACGCCCCACCAGCAUUGCCUUACGCCUCCCUUGCCCCACGUCCGAUGGUUUCUUCCGGUUUUGCACUCUGGCUGCCCCUUGGAGUCUCCUGGGGAGCUGUAACAACAGAGGAUUGAGCAUCA
B5: chr15:63774837:63774950:-|CDS|ENSG00000103657|unk|FALSE|unique (ssRNA)
RNA: GGGAGUUCUACAGUCCGACGAUCGUAACAACAUUUCUUAAAGGAGUCACUAUUCCUAAUUCUGGGGCAGACACUUUAGGUCGUAGAUUAGCUUCUGAGUUGCUGCUUGGUUUGGCAGCUCAACGAGGCUCAUUGCGAUAUCUUCAACAGAGGAUUGAGCAUCA
B6: ENSG00000107863:be:win_5151|CDS|ENSG00000107863|bound_else_gene|NA|bound_elsewhere_windowed (ssRNA)
RNA: GGGAGUUCUACAGUCCGACGAUCUCUAGGAGAUGCCAAGAAUGAGAAAGAAGCACCUUCGUUAACUAAAGUGUUUGAUGUUAUGAAAAAAGGAAAGUCAACUGGGAGUUUACUGACACCCACCAGAGGCGAAUCCGAAAAACACAACAGAGGAUUGAGCAUCA
B7: chrX:11121696:11121802:+|CDS|ENSG00000004961|unk|FALSE|unique (ssRNA)
RNA: GGGAGUUCUACAGUCCGACGAUCUGAUGGUGGUGAAGUCAACAAGGACUACCAGUUCACCAUCCUGGACGUCCGUCCUGCCUUAGAUUCACUUUCGGCAGUAUGGGACAGAAUGAAAGUCGCUUGGUGGCGUUGGACCUCGUACAACAGAGGAUUGAGCAUCA
B8: chr2:152649661:152649762:+|3pUTR|ENSG00000157827|msi1|FALSE|unique (ssRNA)
RNA: GGGAGUUCUACAGUCCGACGAUCCUACAAAUAGACAACGUUGGCAUGUUCUUUUCUGUUUGUCUAUUAAUGGGCCUGCUUCUUAGCAAUAUUAGAAUGUUUUAUAAAAGCAAUUCAUGUUACUUUUCUGGUCUUUUCAUGGCACAACAGAGGAUUGAGCAUCA
B9: chr2:210612109:210612263:+|CDS|ENSG00000021826|unk|FALSE|unique (ssRNA)
RNA: GGGAGUUCUACAGUCCGACGAUCUAUUGGUCGUACCUUUGAGGAGAGUUUCCAGAAAGCUUUACGGAUGUGCCACCCAUCUAUAGAAGGUUUCACUCCCCGUCUCCCAAUGAACAAAGAAUGGCCAUCUAAUUUAGAUCUUAGCAACAGAGGAUUGAGCAUCA
B10: chr11:63758435:63758536:+|3pUTR|ENSG00000133318|msi1|total|mutant (ssRNA)
RNA: GGGAGUUCUACAGUCCGACGAUCAGAAAGAAUCAAAUUCACCGGAUAAGUCAAUACCUUAAUGGUGGCCGAGCCUUUACCUGCCGCUUGAAAGGGGAAAGAUUGGAGGUAAGAGAGAAAAUGAAAGAACACCUCUGGGUCCUUCAACAGAGGAUUGAGCAUCA
B11: chr11:74333230:74333331:-|3pUTR|ENSG00000165434|msi1|FALSE|unique (ssRNA)
RNA: GGGAGUUCUACAGUCCGACGAUCUGAGUCUUUUAUUGAAGGGUUCAAAGUAAGAAAUACUAUGCCAUAGUGUUCUCCAUCUCUAGUGAAGACAGAACCAGAGGGAAUAAGGAUCUUUUUUUUAAAGACAGCAUGGAAAGUUUACAACAGAGGAUUGAGCAUCA
B12: chr18:54155150:54155251:-|3pUTR|ENSG00000134046|unk|total|mutant (ssRNA)
RNA: GGGAGUUCUACAGUCCGACGAUCUUUCCACUGGCUUUUGCCUGUAAGAAAAAAAAUGUACCCGAGCACACCGAGCUUUUUAACCGCACUAACCAAUGCCUUUUCCGAUGUAUUUUUGAUGUAUAUAUCUAUUAUUCAAAAAAUCAACAGAGGAUUGAGCAUCA
B13: chr20:25296659:25296760:+|3pUTR|ENSG00000100994|msi1|FALSE|unique (ssRNA)
RNA: GGGAGUUCUACAGUCCGACGAUCUGGGGGUCAGGGUGGUUUUGAGAGAGCAGGGUAAGGAAGGAAUGUGCUAGAAGUGCUCCUAGUUUCUUGUAAAGGAAGCCAGAGUUGACAGUACAAAGGGUCGUGGCCAGCCCUGCAGCUCAACAGAGGAUUGAGCAUCA
B14: chr1:162523450:162523604:+|3pUTR|ENSG00000152332|msi1|total|mutant (ssRNA)
RNA: GGGAGUUCUACAGUCCGACGAUCAGACUAAGUUGUGCCAGAUGUAAAUCAACCCCUCUUUCCGUUUACUUCCGACUUUGUAUCCGCUCAUCUUUUUUGCCGUAAAUCUACCGUUUUAAGGUUUCUCAAGAUGUGGCUCUACCUCAACAGAGGAUUGAGCAUCA
B15: chr9:128390415:128390516:+|3pUTR|ENSG00000167118|msi1|FALSE|unique (ssRNA)
RNA: GGGAGUUCUACAGUCCGACGAUCCUUACAGCUCAUUCUGCUGGGGGUAGAGAUGAGGGGAGGGAGUAAGUUAAACCUUGGACUAGCAAGUAGAAGCCUGGGGGGAUGCGUGUGCCUCAGUUUCCUCCUCCACAACUGAAUAUACAACAGAGGAUUGAGCAUCA
B16: chr21:36753219:36753320:-|3pUTR|ENSG00000159267|msi1|total|mutant (ssRNA)
RNA: GGGAGUUCUACAGUCCGACGAUCGUUUCAGAUUUACUCUGAAAUGUGGAGCAUUCCUGCAAGACUGUGCAGCUCACGGAAUACCGAAGACAUGGCAUUUUACUCAGAAGUCAUAAGUUUUUGCCCCCCUCAUUUACCUCGUAUCAACAGAGGAUUGAGCAUCA
B17: chr6:38153770:38153871:+|3pUTR|ENSG00000156639|msi1|FALSE|unique (ssRNA)
RNA: GGGAGUUCUACAGUCCGACGAUCGGUGGACAGGAUCAGGAUUCCCUUGAAAGCCCAGGCAGGGUGAGCAGUCCCAGUGGUCCUAGUGCCGCAUCAGAUCCAGGUGGGUGAGGGCAGGAGGCCCCUGCGGAGGCAGCGUGGAUCCAACAGAGGAUUGAGCAUCA
B18: chr1:46929176:46930310:-|three_prime_utr|ENSG00000187048|control|control|control (ssRNA)
RNA: GGGAGUUCUACAGUCCGACGAUCAAGGCUACCCUGACGCACCAUAAUCUAAGCCCGGGGCAUAAAACCCCUCGUGGCUUGGAUAGAAUCCAGGGCUCGUGGCUCUGGAAUGUGUCUGAACUUGCUGCCUCCUCGCUCCUUGCUCAACAGAGGAUUGAGCAUCA
B19: chr1:53088011:53088246:-|CDS|ENSG00000162383|control|control|control (ssRNA)
RNA: GGGAGUUCUACAGUCCGACGAUCCAAGCCAGUGAGCCUCCAGGAGAUCGUGGCAGCCCAGCAGAAUGGCUGUGUGAAGAGUGUAGCCGAGGCCUCCGAGCUCACCCUGGGCCCCACCUGCCCCCACCACGUCCCCGUUCAAGUCAACAGAGGAUUGAGCAUCA
B20: chr19:45890022:45890622:-|three_prime_utr|ENSG00000176182|control|control|control (ssRNA)
RNA: GGGAGUUCUACAGUCCGACGAUCUCUCCCCAGCUUGGCGCAGUCGAGGGGGGCGAUGCUCUCUGCCCAUCCCAGCUGCACCCUAGCUCCCUGCUCCAGGGAUGUGAGCACCCACUCCCUGUGCUAGUUAGUGCCUGAUUCUCUCAACAGAGGAUUGAGCAUCA
B21: chr5:140245379:140245480:-|3pUTR|ENSG00000113068|msi1|FALSE|unique (ssRNA)
RNA: GGGAGUUCUACAGUCCGACGAUCUCUUCUCUUUUCCCUUCCUGUACCUUUGACUAACGCUCAGCUUCCGGGCCUGCAUGCAGUAGACAGAAGAGGAAGAAAGAACAGAUGUUCACAGCUGAAUCUCAGUGAACAGAAUAGCAGCAACAGAGGAUUGAGCAUCA
B22: chr11:61865769:61866452:+|3pUTR|ENSG00000134824|msi1|FALSE|unique (ssRNA)
RNA: GGGAGUUCUACAGUCCGACGAUCUGCAGCCUGGUCACUAGGCAUCACCCCCGCUUUGGUUCUUCAGAUGCUCUUGGGGUUCAUAGGGGCAGGUCCUAGUCGGGCAGGGCCCCUGACCCUCCCGGCCUGGCUUCACUCUCCCUGCAACAGAGGAUUGAGCAUCA

The experiment has as its target MSI1 full-length (mouse, UniProt Q61474 1-362). Kind of experiment: nsRBNS (natural sequence RNA bind-n-seq); RBNS binding buffer (assumed for nsRBNS): 25 mM Tris pH 7.5, 150 mM KCl, 3 mM MgCl2, 0.01% Triton X-100, 500 ug/ml BSA, 20 U/ml SUPERase-In, 4 C; UNK is unkempt and MSI1 is Musashi-1; names of the RNAs are library labels; protein concentration not given here; high values mean tight binding.
UniProt Q61474, sequence (Q61474 whole entry): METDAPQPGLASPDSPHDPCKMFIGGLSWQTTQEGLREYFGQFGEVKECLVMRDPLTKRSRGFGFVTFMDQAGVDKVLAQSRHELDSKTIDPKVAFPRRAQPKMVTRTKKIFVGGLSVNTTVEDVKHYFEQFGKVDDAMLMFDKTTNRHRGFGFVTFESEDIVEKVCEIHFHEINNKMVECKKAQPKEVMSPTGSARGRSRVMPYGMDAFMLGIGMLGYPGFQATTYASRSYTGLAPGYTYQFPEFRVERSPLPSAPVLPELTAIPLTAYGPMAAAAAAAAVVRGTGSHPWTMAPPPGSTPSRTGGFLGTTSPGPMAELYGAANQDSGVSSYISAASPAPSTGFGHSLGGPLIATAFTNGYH
B1 gave a binding signal of 0.468 enrichment R. Take B2: the binding signal is 0.406 enrichment R.

The molecule B3 had a binding signal of 0.539 enrichment R. In the case of B4, the binding signal was 0.606 enrichment R. In the case of B5, the binding signal stood at 0.415 enrichment R. On to B6, for which the binding signal was 0.372 enrichment R. As to B7, the binding signal was found to be 0.379 enrichment R. B8: the binding signal is 1.08 enrichment R. In turn, B9 returned a binding signal of 1.27 enrichment R. B10 had a binding signal of 0.419 enrichment R. The figure for B11 is 0.487 enrichment R; for B12 it is 0.518 enrichment R; for B13 it is 0.706 enrichment R. On to B14, for which the binding signal is 0.276 enrichment R. The molecule B15 yielded a binding signal of 1.01 enrichment R. The figure for B16 is 0.414 enrichment R; for B17 it is 0.41 enrichment R; for B18 it is 0.304 enrichment R. Regarding B19, the binding signal turned out to be 0.677 enrichment R. Regarding B20, the binding signal was 0.626 enrichment R.

In turn, B21 displayed a binding signal of 0.346 enrichment R. Take B22: the binding signal came to 0.473 enrichment R.
